Measured values from patent US20230123178A1 (Hoffmann-La Roche, published 2023).
One block for each binder: values may come before it.

How the values were obtained:
[1] = target: T1, human 4-1BB on cells (human, UniProt Q07011 24-255); assay: cell-based or functional assay
[2] = target: T2, full-length human PD1 on cells (human, UniProt Q15116 25-288); assay: flow cytometry on CHO-K1-huPD1 clone 5 cells
T2 construct: also PD1 on primary human PBMC subsets and on Jurkat reporter cells; also called CHO-PD1; CHO-k1-huPD1 clone 5

[3] = target: T1, human 4-1BB on cells; assay: flow cytometry on HeLa-huCD137-NFkB-luc clone 26 cells
[4] = target: T2, full-length human PD1 on cells; assay: flow cytometry, freshly isolated resting human PBMCs (table title), γδ T cells
[5] = target: T2, full-length human PD1 on cells; assay: flow cytometry, freshly isolated resting human PBMCs (table title), CD4 T cells
[6] = target: T2, full-length human PD1 on cells; assay: flow cytometry, freshly isolated resting human PBMCs (table title), CD8 T cells
[7] = target: T2, full-length human PD1 on cells; assay: flow cytometry on fresh human PBMCs, gate CD4+ T cells; PE-conjugated anti-human IgG secondary; geo mean, baseline corrected

T2 sequence (Q15116 25-288 limits assumed): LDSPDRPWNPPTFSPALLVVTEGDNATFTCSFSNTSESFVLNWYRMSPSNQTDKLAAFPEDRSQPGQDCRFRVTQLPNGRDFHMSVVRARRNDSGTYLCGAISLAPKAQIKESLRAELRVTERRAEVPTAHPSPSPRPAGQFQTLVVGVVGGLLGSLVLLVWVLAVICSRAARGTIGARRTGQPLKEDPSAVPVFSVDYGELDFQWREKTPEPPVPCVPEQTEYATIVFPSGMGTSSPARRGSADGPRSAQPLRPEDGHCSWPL
T1 sequence (Q07011 24-255): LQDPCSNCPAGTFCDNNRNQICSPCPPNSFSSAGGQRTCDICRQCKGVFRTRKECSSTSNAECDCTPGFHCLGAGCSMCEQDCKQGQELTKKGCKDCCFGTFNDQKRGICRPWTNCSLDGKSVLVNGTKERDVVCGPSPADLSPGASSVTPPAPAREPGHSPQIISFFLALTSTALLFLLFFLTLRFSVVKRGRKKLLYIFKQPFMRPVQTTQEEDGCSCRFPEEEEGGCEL

EC50 of NFκB-activation-induced Luciferase activity-curves, with CHO-k1-huPD1 clone 5 [1]: 0.007 nM
EC50 [2]: 1.82 nM
EC50 [3]: 0.32 nM
EC50 [4]: 0.27 nM
EC50 [5]: 0.11 nM
EC50 [6]: 0.19 nM
B1: bivalent PD1(0314)-targeted human 4-1BB ligand (71-248) containing Fc (kih) fusion molecule (Construct 7.6) (Fc fusion)
heavy 1: EVQLLESGGGLVQPGGSLRLSCAASGFSFSSYTMSWVRQAPGKGLEWVATISGGGRDIYYPDSVKGRFTISRDNSKNTLYLQMNSLRAEDTAVYYCVLLTGRVYFALDSWGQGTLVTVSSASTKGPSVFPLAPSSKSTSGGTAALGCLVKDYFPEPVTVSWNSGALTSGVHTFPAVLQSSGLYSLSSVVTVPSSSLGTQTYICNVNHKPSNTKVDKKVEPKSCDKTHTCPPCPAPEAAGGPSVFLFPPKPKDTLMISRTPEVTCVVVDVSHEDPEVKFNWYVDGVEVHNAKTKPREEQYNSTYRVVSVLTVLHQDWLNGKEYKCKVSNKALGAPIEKTISKAKGQPREPQVCTLPPSRDELTKNQVSLSCAVKGFYPSDIAVEWESNGQPENNYKTTPPVLDSDGSFFLVSKLTVDKSRWQQGNVFSCSVMHEALHNHYTQKSLSLSPGGGGGSGGGGSREGPELSPDDPAGLLDLRQGMFAQLVAQNVLLIDGPLSWYSDPGLAGVSLTGGLSYKEDTKELVVAKAGVYYVFFQLELRRVVAGEGSGSVSLALHLQPLRSAAGAAALALTVDLPPASSEARNSAFGFQGRLLHLSAGQRLGVHLHTEARARHAWQLTQGATVLGLFRVTPEIPAGLGGGGSGGGGSREGPELSPDDPAGLLDLRQGMFAQLVAQNVLLIDGPLSWYSDPGLAGVSLTGGLSYKEDTKELVVAKAGVYYVFFQLELRRVVAGEGSGSVSLALHLQPLRSAAGAAALALTVDLPPASSEARNSAFGFQGRLLHLSAGQRLGVHLHTEARARHAWQLTQGATVLGLFRVTPEIPAGL
heavy 2: EVQLLESGGGLVQPGGSLRLSCAASGFSFSSYTMSWVRQAPGKGLEWVATISGGGRDIYYPDSVKGRFTISRDNSKNTLYLQMNSLRAEDTAVYYCVLLTGRVYFALDSWGQGTLVTVSSASTKGPSVFPLAPSSKSTSGGTAALGCLVKDYFPEPVTVSWNSGALTSGVHTFPAVLQSSGLYSLSSVVTVPSSSLGTQTYICNVNHKPSNTKVDKKV[human IgG1 Fc with changes not given here]GGGGSGGGGSREGPELSPDDPAGLLDLRQGMFAQLVAQNVLLIDGPLSWYSDPGLAGVSLTGGLSYKEDTKELVVAKAGVYYVFFQLELRRVVAGEGSGSVSLALHLQPLRSAAGAAALALTVDLPPASSEARNSAFGFQGRLLHLSAGQRLGVHLHTEARARHAWQLTQGATVLGLFRVTPEIPAGL
light: EIVLTQSPATLSLSPGERATLSCRASESVDTSDNSFIHWYQQKPGQSPRLLIYRSSTLESGIPARFSGSGSGTDFTLTISSLEPEDFAVYYCQQNYDVPWTFGQGTKVEIKRTVAAPSVFIFPPSDEQLKSGTASVVCLLNNFYPREAKVQWKVDNALQSGNSQESVTEQDSKDSTYSLSSTLTLSKADYEKHKVYACEVTHQGLSSPVTKSFNRGEC
notes: two PD1 Fabs, dimeric and monomeric 4-1BB ligand fused at the C-terminus of each heavy chain; P329G LALA, knob-into-hole

binding result [7]: no binding (tested: ~300 nM)
B2: monovalent DP47 untargeted split trimeric human 4-1BB ligand (71-248) Fc (kih) fusion with CH-CL cross and with charged residues (control D) (Fc fusion)
chain 1: REGPELSPDDPAGLLDLRQGMFAQLVAQNVLLIDGPLSWYSDPGLAGVSLTGGLSYKEDTKELVVAKAGVYYVFFQLELRRVVAGEGSGSVSLALHLQPLRSAAGAAALALTVDLPPASSEARNSAFGFQGRLLHLSAGQRLGVHLHTEARARHAWQLTQGATVLGLFRVTPEIPAGLGGGGSGGGGSREGPELSPDDPAGLLDLRQGMFAQLVAQNVLLIDGPLSWYSDPGLAGVSLTGGLSYKEDTKELVVAKAGVYYVFFQLELRRVVAGEGSGSVSLALHLQPLRSAAGAAALALTVDLPPASSEARNSAFGFQGRLLHLSAGQRLGVHLHTEARARHAWQLTQGATVLGLFRVTPEIPAGLGGGGSGGGGSRTVAAPSVFIFPPSDRKLKSGTASVVCLLNNFYPREAKVQWKVDNALQSGNSQESVTEQDSKDSTYSLSSTLTLSKADYEKHKVYACEVTHQGLSSPVTKSFNRGE[human IgG1 Fc with changes not given here]
chain 2: REGPELSPDDPAGLLDLRQGMFAQLVAQNVLLIDGPLSWYSDPGLAGVSLTGGLSYKEDTKELVVAKAGVYYVFFQLELRRVVAGEGSGSVSLALHLQPLRSAAGAAALALTVDLPPASSEARNSAFGFQGRLLHLSAGQRLGVHLHTEARARHAWQLTQGATVLGLFRVTPEIPAGLGGGGSGGGGSASTKGPSVFPLAPSSKSTSGGTAALGCLVEDYFPEPVTVSWNSGALTSGVHTFPAVLQSSGLYSLSSVVTVPSSSLGTQTYICNVNHKPSNTKVDEKVEPKSC
heavy: [about 100 residues not given here]GSGFDYWGQGTLVTVSSASTKGPSVFPLAPSSKSTSGGTAALGCLVKDYFPEPVTVSWNSGALTSGVHTFPAVLQSSGLYSLSSVVTVPSSSLGTQTYICNVNHKPSNTKVDKKVEPKSCDKTHTCPPCPAPEAAGGPSVFLFPPKPKDTLMISRTPEVTCVVVDVSHEDPEVKFNWYVDGVEVHNAKTKPREEQYNSTYRVVSVLTVLHQDWLNGKEYKCKVSNKALGAPIEKTISKAKGQPREPQVCTLPPSRDELTKNQVSLSCAVKGFYPSDIAVEWESNGQPENNYKTTPPVLDSDGSFFLVSKLTVDKSRWQQGNVFSCSVMHEALHNHYTQKSLSLSPGK
light: [about 100 residues not given here][about 100 residues not given here]

binding result [7]: no binding (tested: ~300 nM)
B3: DP47 untargeted 4-1BB ligand (71-254) trimer-containing Fc (kih) fusion antigen binding molecule (DP47 split 4-1BBL trimer) Control B (Fc fusion)
chain 1: [about 200 residues not given here]GGGGSGGGGSREGPELSPDDPAGLLDLRQGMFAQLVAQNVLLIDGPLSWYSDPGLAGVSLTGGLSYKEDTKELVVAKAGVYYVFFQLELRRVVAGEGSGSVSLALHLQPLRSAAGAAALALTVDLPPASSEARNSAFGFQGRLLHLSAGQRLGVHLHTEARARHAWQLTQGATVLGLFRVTPEIPAGLPSPRSEGGGGSGGGGSRTVAAPSVFIFPPSDRKLKSGTASVVCLLNNFYPREAKVQWKVDNALQSGNSQESVTEQDSKDSTYSLSSTLTLSKADYEKHKVYACEVTHQGLSSPVTKSFNRGE[human IgG1 Fc with changes not given here]
chain 2: [about 200 residues not given here][about 120 residues not given here]
heavy: [about 100 residues not given here]GSGFDYWGQGTLVTVSSASTKGPSVFPLAPSSKSTSGGTAALGCLVKDYFPEPVTVSWNSGALTSGVHTFPAVLQSSGLYSLSSVVTVPSSSLGTQTYICNVNHKPSNTKVDKKVEPKSCDKTHTCPPCPAPEAAGGPSVFLFPPKPKDTLMISRTPEVTCVVVDVSHEDPEVKFNWYVDGVEVHNAKTKPREEQYNSTYRVVSVLTVLHQDWLNGKEYKCKVSNKALGAPIEKTISKAKGQPREPQVCTLPPSRDELTKNQVSLSCAVKGFYPSDIAVEWESNGQPENNYKTTPPVLDSDGSFFLVSKLTVDKSRWQQGNVFSCSVMHEALHNHYTQKSLSLSPGK
light: [about 100 residues not given here][about 100 residues not given here]
notes: untargeted variant of Construct 7.1 with a DP47 germline Fab
